According to article PMC4336329 (PLoS ONE, 2015):
The campaign covered roughly 310,000 compounds. About 2,200 (0.71%) showed an effect of 50% or more. The effect is printed as a negative number. The list shows a part of the results.

biological target: human ether-à-go-go-related gene (hERG) potassium channel (human, UniProt Q12809); assay: primary screen, population patch clamp on CHO cells stably expressing hERG
Sequence (Q12809 whole entry, looked up): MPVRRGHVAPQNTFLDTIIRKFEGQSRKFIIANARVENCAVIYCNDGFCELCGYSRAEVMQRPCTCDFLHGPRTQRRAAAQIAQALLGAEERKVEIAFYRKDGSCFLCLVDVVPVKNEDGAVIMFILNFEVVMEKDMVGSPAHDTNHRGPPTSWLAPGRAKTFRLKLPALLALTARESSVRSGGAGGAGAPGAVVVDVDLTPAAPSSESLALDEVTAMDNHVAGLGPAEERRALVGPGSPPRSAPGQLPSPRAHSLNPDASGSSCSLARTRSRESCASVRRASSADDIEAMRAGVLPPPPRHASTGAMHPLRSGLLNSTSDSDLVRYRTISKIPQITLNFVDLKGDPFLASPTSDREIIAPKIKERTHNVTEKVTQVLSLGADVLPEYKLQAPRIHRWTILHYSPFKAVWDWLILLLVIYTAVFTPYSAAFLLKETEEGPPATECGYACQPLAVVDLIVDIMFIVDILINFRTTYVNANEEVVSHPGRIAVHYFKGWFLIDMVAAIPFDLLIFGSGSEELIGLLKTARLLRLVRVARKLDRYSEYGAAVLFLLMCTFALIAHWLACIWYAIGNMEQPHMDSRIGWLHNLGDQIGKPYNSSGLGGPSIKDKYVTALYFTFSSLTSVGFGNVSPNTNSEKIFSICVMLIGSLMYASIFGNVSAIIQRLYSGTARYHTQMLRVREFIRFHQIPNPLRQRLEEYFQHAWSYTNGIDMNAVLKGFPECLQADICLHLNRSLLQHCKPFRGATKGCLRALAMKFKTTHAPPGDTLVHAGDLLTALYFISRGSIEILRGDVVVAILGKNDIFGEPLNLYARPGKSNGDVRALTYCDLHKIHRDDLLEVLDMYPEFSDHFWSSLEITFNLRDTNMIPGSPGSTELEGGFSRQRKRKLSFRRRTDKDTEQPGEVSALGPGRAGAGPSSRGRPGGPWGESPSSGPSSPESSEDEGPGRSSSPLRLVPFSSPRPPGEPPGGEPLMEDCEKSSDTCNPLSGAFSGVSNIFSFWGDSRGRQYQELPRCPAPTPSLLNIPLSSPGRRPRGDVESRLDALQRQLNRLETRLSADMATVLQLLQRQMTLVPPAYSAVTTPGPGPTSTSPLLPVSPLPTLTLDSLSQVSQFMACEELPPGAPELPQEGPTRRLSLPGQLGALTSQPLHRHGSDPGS

Compound | hERG current change (%, negative = inhibition) at 1uM
CC(=O)c1c(COC(=O)c2ccc(C)cc2)nc2ccccc2[n+]1[O-] | 8.04%
COc1ccc(C(=O)/C=C/c2ccc(OC)c(COc3ccc(F)cc3)c2)cc1 | 9.29%
COc1ccc(C(=O)n2nc(C)c(Br)c2C)cc1OC | 10.9%
CCC(O)CNc1nc(-n2nc(C)cc2C)nc2sc3c(c12)CC(C)(C)OC3 (stereo not shown) | 11.2%
CC(C)(C)c1ccc(C(=O)N/C(=C\c2ccco2)C(=O)O)cc1 | 10.6%
COc1cccc(/C=N/Nc2ccc([N+](=O)[O-])cc2)c1O | 12.6%
CC1=[N+](CC(=O)NC(C)(C)C)CCc2ccccc21.[Cl-] | 17.5%
COc1ccc(N(CC(=O)NCCSC2CCCCC2)S(C)(=O)=O)c(OC)c1 | -1.96%
O=C(CN1C(=O)NC2(CCCCC2)C1=O)Nc1cc(C(F)(F)F)ccc1N1CCCCC1 | 5.79%
O=C(CSC1c2ccccc2-c2ccccc21)N/N=C/c1ccccc1O | 13.5%
CCOC(=O)c1c(NC(=O)CNC2CCCCC2)sc(C)c1C | 9.04%
Cc1noc(C)c1COc1ccc(C(=O)OCC(=O)NCc2ccccc2Cl)cc1 | 15.3%
NS(=O)(=O)c1ccc(-c2ccc(/C=N/NC(=O)c3ccccc3O)o2)cc1 | 5.47%
CC(=O)C1=C(O)C(=O)N(c2ccc(C(=O)O)cc2)C1c1ccc([N+](=O)[O-])cc1 (stereo not shown) | 21%
CCc1c(C)c(C#N)c2nc3ccccc3n2c1-n1nc(C)cc1C | 4.29%
COCCN1CN=C(NS(=O)(=O)c2ccc(C)cc2)NC1 | 1.53%
CC(=O)c1ccc(OCCNS(=O)(=O)c2ccc(-n3cnnn3)c(C)c2)cc1 | 10.2%
COc1cc(/C=C2\SC(=Nc3ccccc3OC)NC2=O)ccc1O | 8.45%
COc1ccc(OC)c(C(=O)NC(CC(N)=O)c2ccc(NCCN3CCCC3)c([N+](=O)[O-])c2)c1 (stereo not shown) | 10.2%
Cc1ccccc1-n1c(SCC(=O)c2cc(C)n(C)c2C)nnc1-c1ccncc1 | 2.14%
Nc1ccccc1SCC1CSc2nc3ccccc3c(=O)n21 (stereo not shown) | -7.26%
CN(C)c1nc(OCCNC(=O)COc2ccccc2Cl)nc(N(C)C)n1 | 4.17%

Compound | hERG current change (%, negative = inhibition) at 1uM
CC(C)[C@H](NC(=O)c1cc2cc(Cl)ccc2n1C)C(=O)N1CCC(C(=O)O)CC1 | 14.9%
Cc1ccc(-c2ccccc2)n1-c1ccc(C(=O)O)cc1 | 7.42%
Cc1cc(NC(=O)c2cc(-c3ccco3)on2)nn1Cc1ccc(Cl)cc1 | -12.8%
CCn1cc(C(=O)N2CCN(c3ccccn3)CC2)c2cc(OC)c(OC)cc2c1=O | 2.06%
Cc1ccc(C2=NCC(=O)N(CC(=O)N3CCCCC3)c3sc(C)c(C)c32)cc1 | 3.68%
CCS(=O)(=O)n1nc(-c2ccccc2)nc1SC | -1.66%
CC(=O)c1ccc(NC(=O)CN2CCC(C(=O)c3ccc(F)cc3)CC2)cc1 | 6.3%
COc1ccc(-c2ccc(-c3noc(-c4ccccc4OC)n3)c(OC)n2)cc1 | 16.8%
Cc1cc(C)nc(SCC(=O)NC2=NC(=O)C(C)S2)n1 (stereo not shown) | 7.54%
Cc1noc(NS(=O)(=O)c2ccc(NC(=O)CSc3nnc(-c4ccccc4)n3C3CCCCC3)cc2)c1C | 2.36%
COc1ccc(C(=O)O/N=C(\N)c2ccccc2)c(OC)c1 | 9.09%
COc1cc(/C=C2/C(=O)c3cccc([N+](=O)[O-])c3C2=O)c(Br)cc1O | 11.7%
COCCNC(=O)C1CCCN(c2ncccn2)C1 (stereo not shown) | 10.3%
Cc1nnc(SCC(=O)Nc2cc(C(F)(F)F)ccc2Cl)n1C | 12%
CCCCOc1ccc([N+](=O)[O-])cc1C(=O)O | 15.3%
Cc1ccc(S(=O)(=O)N2CCN=C2SCc2ccc(Cl)c(Cl)c2)cc1 | 10.2%
CC(=O)Nc1scc(C)c1-c1nc2ccccc2s1 | 4.95%
Cn1c(=O)c2c(nc(SCCCC#N)n2Cc2ccccc2F)n(C)c1=O | 3.53%
COc1cc(/C=N/NC(=O)c2ccncc2)c([N+](=O)[O-])cc1OC | 10.8%
CCC(C)n1c(S(=O)(=O)O)nc2ccccc21 (stereo not shown) | 0.328%
COc1ccc(S(=O)(=O)Nc2ccc3c(c2)COC3=O)cc1OC | -7.58%
Nc1ccc(N=Nc2ccccc2)cc1 | -11.2%

Compound | hERG current change (%, negative = inhibition) at 1uM
NNC(=O)COc1ccc2oc3c(c2c1)CCCC3 | 20.5%
COc1ccccc1OCCC(=O)N1CCN(c2ccccc2OC)CC1 | 5.54%
CC(CC(=O)NCc1ccccc1)C1CCCO1 (stereo not shown) | 11.3%
CN1CCN(c2nc(Nc3cccc(C(F)(F)F)c3)nc(N3CCOCC3)n2)CC1 | 11.1%
CCc1nc(N(CC)CC)c2oc3ccccc3c2n1.Cl | -10.3%
COc1ccc(C(=O)Nc2nc(CC(=O)NCCc3ccccc3)cs2)cc1 | -3.84%
CCCC(C)NC(=O)COC(=O)c1ccc(Cl)c(S(N)(=O)=O)c1 (stereo not shown) | 11.4%
O=C(Nc1ccccc1-c1nc2ccccc2[nH]c1=O)c1cccs1 | 6.31%
Cn1cccc1Cc1nnc(SCC(=O)NCc2ccccc2)n1-c1ccc(F)cc1 | 9.69%
O=C(COC(=O)c1c(Cl)cccc1Cl)Nc1cccc(S(=O)(=O)NC2=NCCCCC2)c1 | -5.08%
COCC(=O)Nc1sc2c(c1C(=O)OC)C(C(=O)OC)CC2 (stereo not shown) | 6.15%
CCOc1ccc(C(=O)NC(=S)Nc2ccccn2)cc1[N+](=O)[O-] | 3.95%
CC(C)=CCN1CCN(Cc2ccc(C)s2)CC1CCO (stereo not shown) | 3.12%
CC(NC(=O)C1CCN(C(=O)c2cccs2)CC1)c1ccc(S(N)(=O)=O)cc1 (stereo not shown) | 9.45%
Cn1c(/C=C/c2ccc(Cl)cc2)nc2ccccc2c1=O | 19%
Cc1csc(NC(=O)CSc2nc(=O)n(CCN(C)C)c3c2CCCC3)n1 | -15.3%
CNC(=S)N1CCN(c2cccc(OC)c2)CC1 | 7.07%
CC(C)(C)c1ccc(C(=O)NCc2ccco2)cc1 | 11.7%
Cc1ccc(C)n1-c1ccc(-c2ccn[nH]2)cc1 | 10.5%
CC(C)/C=C/C(=O)N1CCCC(N2CCN(c3ccccc3F)CC2)C1 (stereo not shown) | 7.09%
Cc1cc(C(=O)NCCC2=CCCCC2)no1 | -2.61%
COC(=O)c1ccc(NC(=O)COC(=O)C2CCC2)cc1 | 8.03%

Compound | hERG current change (%, negative = inhibition) at 1uM
CCOc1ccc(NC(=O)CN(C)C(=O)c2cc(C)nc3ccccc23)cc1OCC | 7.56%
Cc1cc(C(=O)COC(=O)COc2ccc(C#N)cc2)c(C)n1C1CC1 | 25.9%
O=C1CC(c2ccccc2)CC(O)=C1C=NCCCO (stereo not shown) | 8.58%
COc1cc(NC(=O)C/C(C)=N/NC(=O)c2ccccn2)c(OC)cc1Cl | 2.16%
CCOC(=O)COc1ccc(S(=O)(=O)N2CCN(c3ccc(F)cc3)CC2)cc1 | -15.5%
O=C(CCN1C(=O)[C@@H]2Cc3ccccc3CN2C1=O)NCc1ccccc1 | 17.8%
COc1ccc2nc(C)cc(SCC(=O)N/N=C/c3c(OC)ccc4ccccc34)c2c1 | 19%
C[N+]1(CC(O)COc2ccccc2)CCN(C(=O)c2ccc([N+](=O)[O-])cc2)CC1.[I-] (stereo not shown) | 8.72%
CCOC(=O)N1CCN(S(=O)(=O)c2ccc3c(c2)CCN3C(=O)C2CC2)CC1 | -6.05%
O=C(CNC(=O)c1ccccc1)N/N=C/c1cc(Br)ccc1O | 7.62%
CCOc1cc(/C=N/NC(=O)c2ccc(CN3CCOCC3)cc2)ccc1OCc1ccccc1 | -5.56%
COc1ccc2oc(C(=O)N3CCN(C(c4ccccc4)c4ccccc4)CC3)c(C)c2c1 | -5.15%
S=C(NCc1ccccc1Cl)Nc1ccccc1Cl | 3.62%
CCCn1c(=O)c(C(=O)NCc2ccncc2)c(O)c2ccccc21 | -5.39%
Cc1c(Br)c([N+](=O)[O-])nn1C(C)C(=O)NCc1cccnc1 (stereo not shown) | -7.67%
Cc1oc2cc3oc(=O)c(CC(=O)NCC(=O)N[C@@H](C(=O)O)c4ccccc4)c(C)c3cc2c1C | 8.06%
O=C(O)C(=O)O.O=S(=O)(c1ccccc1F)N1CCN(Cc2nc3ccccc3[nH]2)CC1 | -6.09%
O=C(O)C1Nc2ccc(Br)cc2C2C=CCC12 (stereo not shown) | 7.54%
COC(=O)CCCC(=O)NC1CC(C)(C)Cc2c1cnn2-c1ccc(C)cc1 (stereo not shown) | 5.99%
CCC(Oc1cccc(C)c1)C(=O)Nc1ccccc1C(=O)N1CCOCC1 (stereo not shown) | 13.4%
CN1CCN(c2oc(Cc3cccc4ccccc34)nc2C#N)CC1 | 8.5%
O=[N+]([O-])c1ccc(C[n+]2cccc(O)c2)cc1.[Br-] | 3.9%
